This is an account of results in PMC12136788.

T1: UNK ZnF1-6 (called full-length) (human, UniProt Q9C0B0 30-357)
T1 sequence: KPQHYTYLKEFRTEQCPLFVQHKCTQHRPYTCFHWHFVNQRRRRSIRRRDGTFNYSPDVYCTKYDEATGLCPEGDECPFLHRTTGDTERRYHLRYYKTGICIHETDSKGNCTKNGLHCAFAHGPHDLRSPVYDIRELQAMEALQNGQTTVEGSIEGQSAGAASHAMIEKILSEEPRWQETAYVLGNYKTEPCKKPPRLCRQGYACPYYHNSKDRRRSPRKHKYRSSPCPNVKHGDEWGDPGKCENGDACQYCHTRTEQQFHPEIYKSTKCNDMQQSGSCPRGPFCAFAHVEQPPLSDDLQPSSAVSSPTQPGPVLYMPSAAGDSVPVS

B1: chr4:168926953:168927063:+|3pUTR|ENSG00000129116|msi1_unk|FALSE|overlapping (ssRNA)
RNA: GGGAGUUCUACAGUCCGACGAUCCAAAAGAGUUUUCUAACAAGGUUAAUACCUUAGUUCUUAACAUUUUUUUUCUUUAUGUGUAGUGUUUUCAUGCUACCUUGGUAGGAAACUUAUUUACAAACCAUAUUAAAAGGCUAAUUUCAACAGAGGAUUGAGCAUCA
B2: chr3:44446857:44446958:-|CDS|ENSG00000185219|msi1|FALSE|unique (ssRNA)
RNA: GGGAGUUCUACAGUCCGACGAUCGGGAGACAUACCCUUUCCAGUCACCAGAGGAAACACACCAGAGCAGCACAGGCUGAACGUAGCCCGCCUGCACGGUCUUCCUCUCAGGACACAAAGUUGAGAUUACAGAAGCUAAAACCACAACAGAGGAUUGAGCAUCA
B3: chr2:227556236:227556337:+|3pUTR|ENSG00000173744|msi1|FALSE|bound_elsewhere (ssRNA)
RNA: GGGAGUUCUACAGUCCGACGAUCUGUUGAAUGCCUUUUUGCAAUGAUGACUGAGUUGUUAUCAUAGUAUUUUAAAACCUGUAUAGUGUUUUAGACUUGUUAAAACAUUGCUGUCUAGUGUACAUCUAGCUAAAAGUGUGGUUUCAACAGAGGAUUGAGCAUCA
B4: chr15:60490033:60490134:-|3pUTR|ENSG00000069667|unk|FALSE|unique (ssRNA)
RNA: GGGAGUUCUACAGUCCGACGAUCUGCUGGAUUUGGGACAUGCUUUUCUCUUUAAAUACAUAAUAUCAUUAUAUAAAUUAUUCUAGAGUGUAUUUAAUUAGGAUAAAAUUACUUCCUUAGUAUGGAUAUUUGACAUCUAUAGGGCAACAGAGGAUUGAGCAUCA
B5: chr2:96185838:96185916:-|3pUTR|ENSG00000084090|msi1_unk|FALSE|overlapping (ssRNA)
RNA: GGGAGUUCUACAGUCCGACGAUCUGGGAGACUAAUCCUUUUAGAUAGUAGCUUUUUGAUGCUCAAAACAUCACAUUUAAAUUUAGUUUAAAAAUUUUUUAACUUUUGUGUCAAAUAGGAGUUGAGGAAUUGAGCAGGAUUCUACAACAGAGGAUUGAGCAUCA
B6: chr1:113797602:113797710:-|CDS|ENSG00000081019|unk|total|mutant (ssRNA)
RNA: GGGAGUUCUACAGUCCGACGAUCUUUAUGACUCACCAGGAACAUUCUAUUCGCCGAAAUUUCUUAAAAACAGGUACUAAAUUCCGCAACUUUAUUCAUGAGGAACACCAGUCCAAUGGUGGUGCUCUUGUCCUUCAUGCUUACCAACAGAGGAUUGAGCAUCA
B7: chr22:42060953:42061055:-|CDS|ENSG00000198951|unk|FALSE|unique (ssRNA)
RNA: GGGAGUUCUACAGUCCGACGAUCCCAGGAAAAAUCUCUCAUCGAAGUGUACAUGCGGCCUCUGUCCAACAAGGCUAGCGCCUUAGUCUUCUUCAGCUGCAGGACCGAUAUGCCUUAUCGCUACCACUCCUCCCUUGGCCAGCUCAACAGAGGAUUGAGCAUCA
B8: ENSG00000198589:be:win_5951|CDS|ENSG00000198589|bound_else_gene|NA|bound_elsewhere_windowed (ssRNA)
RNA: GGGAGUUCUACAGUCCGACGAUCACUGGGAAGAUGACUUGCGGCGCCGGCGACGAUUUGUGCGUAACCCUCUAGGAUCGACACAUCCUGAAGCGACACUAAAAACAGCCGUGGAACAUGCCACAGAUGAAGAUAUCCUUGCUACAACAGAGGAUUGAGCAUCA
B9: chr17:44678858:44679043:-|CDS|ENSG00000180329|control|control|control (ssRNA)
RNA: GGGAGUUCUACAGUCCGACGAUCUCGGGAUGAAUCCCAAAGGAAGAAGGAACAGGACAAGCUGCAGAGGGAGAGAGACAAACUAGCCAAGCAGGAGCGCAAGGAAAAGGAAAAAAAAAGGACACAGAGAGGGGAGCGAAAGCGCAACAGAGGAUUGAGCAUCA
B10: chr6:98868534:98874277:-|three_prime_utr|ENSG00000112234|control|control|control (ssRNA)
RNA: GGGAGUUCUACAGUCCGACGAUCAUUAAAAUUAAUGUGCUUUGUUGGGGUUUAAUUUUGGGAUUGGUUUUGGGUUUUGUUUUUAGUUGUUUUAAUGGUAAGAAUUAAGACAUUUGUAGAUUUUAAAGAAAAAUAUGAAAUUGUCAACAGAGGAUUGAGCAUCA
B11: chrX:72139229:72139330:+|CDS|ENSG00000204131|unk|FALSE|unique (ssRNA)
RNA: GGGAGUUCUACAGUCCGACGAUCUCCCUUAGUGCCCAGCAAGAGGCCCAGCACAGAAGGCAGAGGUCCAAGAGUAUCUCACUUAGGAAGGCCAAAAAGAAGCCUUCCCCACCCACACGCAGUGUCUCACUGGUCAAAGAUGAGCAACAGAGGAUUGAGCAUCA
B12: chr22:31279490:31279591:+|3pUTR|ENSG00000182541|msi1|total|mutant (ssRNA)
RNA: GGGAGUUCUACAGUCCGACGAUCAGCAGCUUGGGCUGGGAAGAGGUGGUGGCAGAGUCUCAAAGCUGAGAUGCUGAGAGAGACCGCUCCCUGAGCUGGGCCAUCUGACUUCUACCUCCCAUGUUUGCUCUCCCAACUCAUCCGCAACAGAGGAUUGAGCAUCA
B13: ENSG00000112339:stop:overlap|stop_codon|ENSG00000112339|stop_codon|NA|stop_codon (ssRNA)
RNA: GGGAGUUCUACAGUCCGACGAUCUGAAGGACAAGAAUGAGGCAACAGUAUCUACAGGAAAGAUAGCAAAAGGCCCUUGCUGCUAGACCUUCAGCUUUUGCCUCAACACUGUGUCUUCGUUACCCACUGAAAAGCUGCAAGCGACAACAGAGGAUUGAGCAUCA
B14: chr12:121847077:121847190:-|CDS|ENSG00000158104|unk|total|mutant (ssRNA)
RNA: GGGAGUUCUACAGUCCGACGAUCAAAAACCUGCAGUUCCACCGCUUCUGGUCCGUGGAUGACACGCAGGUGCACACGGAAUACCGCUCUCUGCGAUCCAUUGUGGUGGCCAACUAUGAAGAGUCCAUCAAGAUGCCCAUCAAUCAACAGAGGAUUGAGCAUCA
B15: ENSG00000198589:be:win_6801|CDS|ENSG00000198589|bound_else_gene|NA|bound_elsewhere_windowed (ssRNA)
RNA: GGGAGUUCUACAGUCCGACGAUCAAAAAGAGCAGCAUUCUUCGCUGAGCGUUAUGAAUCAUGGGAAGAUGAUCAAGUUCCAAAGUUUCACUAUGGUACUCAUUACUCAACUGCAAGUUUUGUUCUUGCAUGGCUGCUAAGAAUCAACAGAGGAUUGAGCAUCA
B16: chr6:52279506:52279615:-|CDS|ENSG00000112118|unk|total|mutant (ssRNA)
RNA: GGGAGUUCUACAGUCCGACGAUCUGAGUGUGGCAUUUUUAAGACAGGACGGAGAUCACUCUGUCCCUCUGUGUGCCUUUUUCCCGGAUGAGGAGAACAAUCCCCUUGAGACAGAAUAUGGCCUUUCUGUCUACAAGGAUCACCCAACAGAGGAUUGAGCAUCA
B17: ENSG00000198589:be:win_6601|CDS|ENSG00000198589|bound_else_gene|NA|bound_elsewhere_windowed (ssRNA)
RNA: GGGAGUUCUACAGUCCGACGAUCACCCAGCGAUGGCAACACAGAGAGAUAUCUAAUUUUGAGUACUUGAUGUUUCUCAACACGAUAGCAGGACGGAGUUAUAAUGACUUAAAUCAGUAUCCAGUGUUUCCUUGGGUCAUCACUCAACAGAGGAUUGAGCAUCA
B18: chr6:96891104:96891324:-|CDS|ENSG00000123545|unk|FALSE|unique (ssRNA)
RNA: GGGAGUUCUACAGUCCGACGAUCUAAUCAUAAGCUUUUCCCAGAAACCUGGACUGCUGAGAAAAUAAUGCAGGAAUACCAGUUAGAACAGAAAGAUGUGAAUUCUCUUCUUAAAUAUUUUGUUACUUUUGAAGUCGAAAUCUUCAACAGAGGAUUGAGCAUCA
B19: chr15:52550141:52550321:-|3pUTR|ENSG00000128989|msi1|FALSE|unique (ssRNA)
RNA: GGGAGUUCUACAGUCCGACGAUCAGAUGUCACUUUAGUAAAAUACCAAUUUAGUUUUACUUGUGGCUUAUCUAGUUAGAACUUAGCAGACUUUACUGGGACAAGUUUACUGCUCUUGUAGGAGCUCCUCUCACAAGUAGUUGUCAACAGAGGAUUGAGCAUCA
B20: chr10:62807900:62808002:+|3pUTR|ENSG00000181915|unk|total|mutant (ssRNA)
RNA: GGGAGUUCUACAGUCCGACGAUCCAAAAAGUUGAUCCGCUUACCAAGAUUAUUAACCGCAAUGUAUGUGUUAUAAUACAACUCCGUACAUUAAAGCUACGAAAACUCAUCCUGGCUGCCGGACCGUAAUAAAGGAAGAAUUAUCAACAGAGGAUUGAGCAUCA
B21: chr8:133458587:133458688:-|3pUTR|ENSG00000008513|msi1|FALSE|unique (ssRNA)
RNA: GGGAGUUCUACAGUCCGACGAUCAUGAAACAAAAGCCCUUACUUGGGAAAAGGGACCCCCACCAGCGGCCCUGCUUGCUCCGUAGCUGGGAACAUCUUUUCUGGUUUCCUGAGCCAGCACCUGAAUUGCAACGAAGCUCUGAGCAACAGAGGAUUGAGCAUCA
B22: chr5:180576808:180576909:+|3pUTR|ENSG00000113300|unk|total|mutant (ssRNA)
RNA: GGGAGUUCUACAGUCCGACGAUCUAUUUUCCGUGUCCUAAAUAAUUUUCAAUAAUCUAUAAUCCCUAAAAUGCAAUAAAAACCCGUAUGUUUUCACGGUGUAUAUUUUUUUUCAAAAAUUCUGUAACAAAUAUAUUUAAUGUGCAACAGAGGAUUGAGCAUCA

This is one part of the list.

The target in this assay is T1, UNK ZnF1-6 (called full-length). Description: nsRBNS (natural sequence RNA bind-n-seq); RBNS binding buffer (assumed for nsRBNS): 25 mM Tris pH 7.5, 150 mM KCl, 3 mM MgCl2, 0.01% Triton X-100, 500 ug/ml BSA, 20 U/ml SUPERase-In, 4 C; UNK is unkempt and MSI1 is Musashi-1; names of the RNAs are library labels; protein concentration not given here; high values mean tight binding.
Molecule B1 gave a binding signal of 20.1 enrichment R.

Turning to B2, the binding signal was determined as 0.462 enrichment R.

B3: the binding signal was 0.596 enrichment R.

Molecule B4 registered a binding signal of 4.69 enrichment R.

For B5, the binding signal worked out at 27.5 enrichment R.

The molecule B6 showed a binding signal of 0.205 enrichment R.

B7 returned a binding signal of 0.806 enrichment R.

B8 came in with a binding signal of 0.473 enrichment R.

Consider B9, for which the binding signal is 0.927 enrichment R.

For B10, the binding signal came out at 12.9 enrichment R.

With B11, the binding signal was 1.31 enrichment R.

As to B12, the binding signal stood at 0.701 enrichment R.

Regarding B13, the binding signal is 0.344 enrichment R.

For B14, the binding signal is 0.452 enrichment R.

The molecule B15 returned a binding signal of 0.193 enrichment R.

With B16, the binding signal was determined as 0.393 enrichment R.

For B17, the binding signal is 0.398 enrichment R.

For B18, the binding signal was found to be 0.645 enrichment R.

Take B19: the binding signal is 2.25 enrichment R.

B20 came in with a binding signal of 0.286 enrichment R.

Take B21: the binding signal came to 0.658 enrichment R.

With B22, the binding signal worked out at 10.6 enrichment R.
